{
  "source": "the RNAGym collection of RNA variant scans (doi:10.7554/elife.90254)",
  "parents": {"B1": {"name": "OR4K15 (parent)", "chain": "GUUAACGGUCAUAGGCCAUGGAAACUAGGAGCACCAUUUCGCUGCCAGUGAAGAAAUGAACAAAGAAAAUCUGGGCCAGGCAGGCAUCAAAAGAAAUAGUCUUGCGCUCAACCAGAAAGUCUGUAAUCAUUUUAAGGGUA"}},
  "note": "Read counts are not given, so values of variants with three or more changes are uncertain.",
  "data": [
    {"variants_of": "B1", "test": "self-cleavage, relative activity (ratio to wild type); higher = more cleavage; in vitro, sequencing; the parent is a self-cleaving ribozyme", "values": [
      {"variant": "GUUAACGGCCAUAGGCCAUGGAAACUAGGAGCACCAUUUCGCUGACAGUGGAGAAAUGAACAAAGAAAAUCUGGGCCAGGCAGGCAUCAAAAGAAAUAGUCUUGCGCUCAACCAGAAAGUCUGUAAUCAUUUUAAGGGUA", "self-cleavage": 0.89},
      {"variant": "GUUAACGGUCAUGGGCCAUGGAAGCUAGGAGCACCAUUUCGCUGCCAGUGAAGAAGUGAACAAAGAAAAUCUGGGCCAGGCAGGCAUCAAAAGAAAUAGUCUUGCGCUCAACCAGAAAGUCUGUAGUCAUUUUAAGGGUA", "self-cleavage": 0.5},
      {"variant": "GUUAACGGUCAUAGGCCAUGGGAACUAGGAGCACCAUUUCGCUGCCAGAGAAGAAAUGAACAAAGAAAAUCUGGGCCAGGCAGGCAUCAAAAGAAAUGGUCUUGCGCUCAACCAGAAAGUCUGUAAUCAUUUUAAGGGUA", "self-cleavage": 0.28},
      {"variant": "GUUAACGGUCAUAGGCCAUGGAAACUAGGAGCACCAUUUCGCUGCCUGUGGAGAAAUGAACAAAGAAAAUCUGGGCCAGGCAGGCAACAAAGGAAAUAGUCUUGCGCUCAACCAGAAAGUCCGUAAUCAUUUUAAGGGUA", "self-cleavage": 0.64},
      {"variant": "GUUAACGGUCAUAGGCCGUGGAAACUAGGAGCACCAAUUCGCUGCCAGUGAAGAAAUGAACAAAGAAAAUCUGGGCCAGGCAGGCAUCAAAAGAAAUAGUCUUGCGCUCAACCAGAAAGUCUGUAAUCUUUUUAAGGGUA", "self-cleavage": 0.48},
      {"variant": "GUUAACGGUCAUAGGCCAUGGAAACUAGGAGCACCAUUUCGCUGCCAGUGAAGAAAUGAACAAAGAAAAUCUGGGCCAGGCAGGCAUCAGAAGAAAUAGUCUUGCGCUCAACCAGAAAGCCUGUAGUCAUUUUAAGGGUA", "self-cleavage": 0.7},
      {"variant": "GUUAACGGUCAUAGGCCAUGGAAGCUAGGGGCACCAUUUCGCUGCCCGUGAAGAAAUGAACAAAGAAAAUCUGGGCCAGGCAGGCAUCAAAAGAAAUAGUCUUGCGCUCAACCAGAAAGUCUGUAAUCAUUUUAAGGGUA", "self-cleavage": 1},
      {"variant": "GUUAACGGUCAUAGGCCAUGGAAACAAGGAGCACCAUUUCGCUGCCAGUGAAGAAAAGAACAAAGAAAAUCUGGGCCAGGCAGGCAUCAUAAGAAAUAGCCUUGCGCUCAACCAGAAAGUCUGUAAUCAUUUUAAGGGUA", "self-cleavage": 1.94},
      {"variant": "GUUAACGGUCAUAGGCCGUGGAAACUAGGAGCACCAUUUCGCUGCCAGUGAAGAAAUGAACAAAGAAAAUCUGGGCCAGGCAGGCGUCAAAAGAAAUAGUCUUGCGCUCAACCAGAAAGUCUGUAAUCAUUCUAAGGGUG", "self-cleavage": 1.59},
      {"variant": "GUUAACGGUCAUAGGCCAUGGAAACUAGGAGCACCAUUUCGCUGCCAGUGACGAAAUGAACAAAGAAAAUCUGGGCCAGGCAGGCACCAAAAGAGAUAGUCUUGCGCUCAACCAGAAAGUCUGUAAUCAUUUUAGGGGUA", "self-cleavage": 1.44},
      {"variant": "GUUAACGGUCAUAGGCCAUGGAAACUAGGAGCACCAUUUCGCUGCCAGUGAAGAAAUGAACAAAGAAAAUCUGGGCCAGGCAGGCAUCAAAAGAAAUAGUCCUGCGCUCAACCAGAAAGUCUGUAAUCACUUGAAGGGUA", "self-cleavage": 2.48},
      {"variant": "GAUAACGGUCAUAGGCCAUGGAAACUAGGAGCACCAUUUCGCUGCCAGUGAAGAAAUGAACAAAGAAAAUCAGGGCCAGGCAGGCAUCAAAAGAAAUAGUCUUGCGCUCAACCAGAAAGUCUGUAAUCAUUCUAAGGGUU", "self-cleavage": 0.33},
      {"variant": "GUUAACGGUCAUAGGCCAUGGAAACUAGGAGCACCACUUCGCUGCCAGUGAAGAAAUGAACAAAGAAAAUCUGGGCCAGGCAGGCAUCAGAAGAAAUAGUCUCGCGCUCAACUAGAAAGUCUGUAAUCAUUUUAAGGGUA", "self-cleavage": 0.02},
      {"variant": "GUUAACGGUCUUAGGCCAUGGGAACUAGGAGCACCAUUUCGCUGCCAGUGAAGAAAUGAACGAAGAAAAUCUGGGCCAGGCAGGCAUCAAAAGGAAUAGUCUUGCGCUCAACCAGAAAGUCUGUAAUCAUUUUAAGGGUA", "self-cleavage": 1.26},
      {"variant": "GAUAGCGGUCAUAGGCCAUGGAAACUAGGAGCACCAUUUCGCUGCCAGUGAAGAAAUGAACAAAGAAAAUCUGGGCCAGGCAGGCACCAGAAGAAAUAGUAUUGCGCUCAACCAGAAAGUCUGUAAUCAUUUUAAGGGUA", "self-cleavage": 0},
      {"variant": "GUUAUCGGUCAUAGGCCAUGGAAACUAGGAGCACCAUUUCGCUGCCAGUGGAGAAAUGAGCAAAGAAAAUCUGGGCCAGGCAGGCAUCAAAAGAAAUAGUCUUGCGCUCAACCAGAAAGUCUGUAAUCAUUUUAAGGGUA", "self-cleavage": 0.93},
      {"variant": "GUUAACGGUCAUAGGCCAUGGAAACUAGGAGCACCAUUUCGCUGCCGGUGAAGAAGUGAACAAAGAAAAUCUGGGCCAGGCAGGCAUCAAAAGGAAUAGUCUUGCGCUCAACCAGAAAGUCUGUAAUCAUUUUAAGGGUA", "self-cleavage": 0.86},
      {"variant": "GUUAACGGUCAUAGGCCACGGGAACUAGGAGCACCAUUUCGCUGCCAGUGAAGAAGUGAACAAAGAAGAUCUGGGCCAGGCAGGCAUCAAAAGAAAUAGUCUUGCGCUCAACCAGAAAGUCUGUAAUCAUUUUAAGGGUA", "self-cleavage": 0.68},
      {"variant": "GUUAACGGUCAUAGGCCAUGGAAACUAGGAGCACCAUUUCGCUGCCGGUGAAGAAAUGAACAAAGAAAAUCUGGGCCAGGCAGGCAUCAAAAGAAGUAGUCUUGCGCUCAACCAGAAAGUCUGUAAACACUUUAAGGGUA", "self-cleavage": 1.15},
      {"variant": "GUUAACGGUCAUAGGCCAUGGAAACUAGGAGCACCAUUUCGCUGCCAGUGAAGAAAUGAACAAAGAAAAUCUGGGCCAGACAGGCUUCAAAAGAAAUAGUCUUGCGCUCAACCAGAAAGUCUGUAAUCAUUUUAAGGGCA", "self-cleavage": 0.31},
      {"variant": "GUUAACGGUCAUAGGUCACGGAAACUAGGAGCACCAUUUCGCUGCCAGUGAAGAAAUGAACAAAGGAAAUCUGGGCCAGGCAGGCAUCAGAAGAAAUAGUCUUGCGCUCAACCAGAAAGCCUGUAAUCACUUUAAGGGUA", "self-cleavage": 0.72},
      {"variant": "GUUAACGGUCAUAGGCCAUGGUAACUAGGAGCACCAUUUCGCUGCCAGUGAAGAAAUGAACAAAGAAAAUCCGGGCCAGGCUGGCAUCAAAAGAAAUAGUCUUGCGCUCAACCGGAAAGACUGUAAUCAUUCUAAGGGUA", "self-cleavage": 0.06},
      {"variant": "GUUAACGGUCAUAGGCCAUGGAAGCUAGGAGCACCAUUUCGCUGCCAGUGAAGAAAUGAACAAAGAGAAUCUGGGCCAGGCAGGCAUCAAAAGAAAUAGUCCUGCGCUCAACCAGAAAGUCUGUAAUCAUUUUAAGGGUA", "self-cleavage": 1.26},
      {"variant": "GUUAACGGUCAUAGGCCAUGGAGGCUAGGAGCACCAUUUCGCUGCCAGUGAAGAAACGAACAAAGAAAAUCUGGGCCAGGCAGGCAUCAAAAGAAAUAGUCUUGCGCUCAACCAGAAAGUCUGUAAUCAUUUUAAGGGUA", "self-cleavage": 0.81},
      {"variant": "GUUAACGGUCAUAGGCCAUGGAAACUAGGGGCACCAUUUCGCUGCCAGUGUAGAAAUGAACAAAGAAAAUCUGGGCCAGGCAGGCAUCAAAAGAAGUAGUCUUGCGCUCAACCAGAAAGUCUGUAAUCAUUUUAAGGGUA", "self-cleavage": 1.72},
      {"variant": "GUUAACGGUCAUAGGCCAUGGAAACUAGGAGCACCAUUUCGCUGCCAGUGAAGGAAUGAACAAAGAAAAUCUGGGCCAGGCAGGCAUCAAAGGAAAUAGUCUUGCGCUCGACCAGAAAGUCUGUAAUCAUUUUAAGGGUA", "self-cleavage": 0.07},
      {"variant": "GAUAACGGUCAUAGGCCAUGGAAACUAGGAGCACCACUUCGCUGCCAGAGAAGAAAUGAACAAAGAAAAUCUGGGCCAGGCAGGCAUCAAAAGAAAUAGUCUUGCGCUCAACCAGUAAGUCUGUAACCAUUUUAAGGGUA", "self-cleavage": 0.14},
      {"variant": "GUUAACGGACAUAGGCCAUGGAAACUAGGAGCACCGUUUCGCUGCCAGUGAAGAAAUGAACAAAGAAAAUCUGAGCCAGGAAGGCAUCAAAAGAAAUAGUCUUGCGCUCAACCAGAAAGUCUGUAAUCAUUUUAAGGGUA", "self-cleavage": 0.19},
      {"variant": "GUUAACGGUCAUAGGCCAUGGGAACUAGGAGCACCAUUUCGCUGCCAGUGAAGAAAUGAACAAAGAAAAUCUGGGCCAGGCAGGCACCAAAAGGAAUAGUCUUGCGCUCAACCAGAAAGUCUGUAAUCAUUUUAAGGGUA", "self-cleavage": 1.38},
      {"variant": "GUUAACGGUCAUAGGCCAUGGAAACUAGGGGCGCCAUUUCGCUGCCGGUGAGGAAAUGAACAAAGAAAAUCUGGGCCAGGCAGGCAUCAAAAGAAAUAGUCUUGCGCUCAGCCAGAAAGUCUGUAAUCACUUUAAGGGUA", "self-cleavage": 0.02},
      {"variant": "GUUAACGGUCAUAGGCCAUGGAAACUAGGAGCACCAUUUCGCUGCCAGUGAAGAAAUGAACAAAGAAAAUCUGGGCCAGGCAGGCACCAAAAGAAAUUGUCUUGCGCUCAACCGGAAAGUCUGUAAUCAUUUUAAGGGUA", "self-cleavage": 0.45},
      {"variant": "GUUAACGGUCAUAGGCCAUGGAAACUAGGUGCACCACUUCGCUGCCAGUGAGGAAAUGAACAAAGAAAAUCUGGGCCAUGCAGGCAUCAAAAGAAAUGGUCUUGCGCUCAACCAGGAAGUCUGUAAUCAUUUUAAGGGUA", "self-cleavage": 0.01},
      {"variant": "GUCAACGGUCAUAGGCCGUGGAAACUAGGAGCACCAUUUCGCUGCCAGUGAAGAAAUGAUCAAAGAAAAUCUGGGCCAGGCAGGCAUCAAAAGAAAUAGUCUUGCGCUCAACCAGAAAGUCUGUAAUCAUUUUAAGGGUA", "self-cleavage": 0.58},
      {"variant": "GUUAACGGUCAUAGGCCAUGGAGACUAGGAGCACCAUUUCGCUGCCAGAGAAGAAAUGAACAAAGAAAGUCUGGGCCAGGCAGGCAUCAAAAGAAAUAGUCUUGCGCUCAACCAGAAAGUCUGUAAUCAUUUUAAGGGUA", "self-cleavage": 0.47},
      {"variant": "GCUGACGGUCAUAGGCCAUGGAAACUAGGAGCACCAUUUCGCUGCCAGUGAAGAAAUGAACAAAGAAAAUCUGGGCCAGGCAGGCAUCAAAAGGGAUAGUCUUGCGCUCAACCAGAAAGUCUGUAAUCAUUUUAAGGGUA", "self-cleavage": 1.2},
      {"variant": "GUUAACGGUCAUAGGCCAUGGAAACUCGGAGCACCAUUUCGCUGCCAGUGGAGAAAUGAACAAAGAAAAUCUGGGCCAGGCAGGCAUCAAAAGAAAUAGUCUCGCGCUCAACCAGAAAGCCUGUAAUCAUUUUAAGGGUA", "self-cleavage": 0.44},
      {"variant": "GUUAACGGUCACAGGCCAUGGAAACUAGGAGCACCAUUUCGCUGCCAGUGAAGAAAUAAACAAAGAAAAUCUGGGCCAGGCAGGCAUCAAAAGAAAUAGUCUUGCGCCCAACCAGAAAGUCUGUAAUCAUUUUAAGGGUA", "self-cleavage": 0.02},
      {"variant": "GUUAACGGUCAUAGGACAUGGAAACUAGGAGCACCAUUUCGCUGCCAGUGAAGAAACGAACAAAGAAAAUCUGGGCCAGGCAGGCAUCAAAGGAAAUAGUCUUGCGCUCAACCAGAAAGUCUGUAAUCAUUUUAAGGGUA", "self-cleavage": 0.76},
      {"variant": "GUUAACGGUCAUAGGCCAUGGAAACUAGGAGCACCAUUUCGCUGCCAGUGAAGAAAUGAGCAAAGAAAAUCUGGGCCAGGCAGGCAUCAAAAGAAAUAGUCUUGCGCUCAGCCAGAAAGCCUGUAAUCAUUUUAAGGGUA", "self-cleavage": 0.01},
      {"variant": "GUUAACGGUCACAGGCCAUGGAAACUAGGAGCACCAUUUCGCUGCCAGUGAAGAAAUGAGCAAAGAAAAUCUGGGCCAGGCAGGCACCAAAAGAAAUAGUCUUGCGCUCAACCAGAAAGUCUGUAAUCAUUUUAAGGGUA", "self-cleavage": 0.96},
      {"variant": "GUUAACGGUCAUAGGCCAUGGAAACUAGGAGCCCCAUUUCGCUGCCAGUGGAGAAAUGAACAAAGAAAAUCUGGGCCAGGCAGGCAUCAAAAGAAAUAGUCUUGCGCUCGACCAGAAAGUCUGUAAUCAUUUUAAGGGUA", "self-cleavage": 0.46}
    ]}
  ]
}
